Positions count from the first letter of the chain named. The list shows a part of the results.

Sequences and labels used below:
B1: CCAAUGA (DNA:RNA)
RNA: GGGAGACCGGAAUUCAGAUUGUCCCCAAUGAUUAAAUCCCGUCGUAGCCACCA
DNA 1: CAATCTGAATTCCGGTCTCCC
DNA 2: TGGTGGCTACGACGGGATT
B2: CGAACGC (DNA:RNA)
RNA: B1 RNA with C26G, U29C, A31C
DNA 1: CAATCTGAATTCCGGTCTCCC
DNA 2: TGGTGGCTACGACGGGATT
B3: UAUCUGG (DNA:RNA)
RNA: B1 RNA with C25U, C26A, A27U, A28C, A31G
DNA 1: CAATCTGAATTCCGGTCTCCC
DNA 2: TGGTGGCTACGACGGGATT
B4: UUAGUUG (DNA:RNA)
RNA: B1 RNA with C25U, C26U, A28G, G30U, A31G
DNA 1: CAATCTGAATTCCGGTCTCCC
DNA 2: TGGTGGCTACGACGGGATT
B5: CCGAAAU (DNA:RNA)
RNA: B1 RNA with A27G, U29A, G30A, A31U
DNA 1: CAATCTGAATTCCGGTCTCCC
DNA 2: TGGTGGCTACGACGGGATT
B6: UACCGAU (DNA:RNA)
RNA: GGGAGACCGGAAUUCAGAUUGUCCUACCGAUUUAAAUCCCGUCGUAGCCACCA
DNA 1: CAATCTGAATTCCGGTCTCCC
DNA 2: TGGTGGCTACGACGGGATT
B7: UCAAAGG (DNA:RNA)
RNA: B1 RNA with C25U, U29A, A31G
DNA 1: CAATCTGAATTCCGGTCTCCC
DNA 2: TGGTGGCTACGACGGGATT
B8: GGUUGCU (DNA:RNA)
RNA: B6 RNA with U25G, A26G, C27U, C28U, A30C
DNA 1: CAATCTGAATTCCGGTCTCCC
DNA 2: TGGTGGCTACGACGGGATT
B9: CGUUGCU (DNA:RNA)
RNA: B6 RNA with U25C, A26G, C27U, C28U, A30C
DNA 1: CAATCTGAATTCCGGTCTCCC
DNA 2: TGGTGGCTACGACGGGATT
B10: CUUUGCG (DNA:RNA)
RNA: B1 RNA with C26U, A27U, A28U, U29G, G30C, A31G
DNA 1: CAATCTGAATTCCGGTCTCCC
DNA 2: TGGTGGCTACGACGGGATT
B11: UUUGGCG (DNA:RNA)
RNA: B6 RNA with A26U, C27U, C28G, A30C, U31G
DNA 1: CAATCTGAATTCCGGTCTCCC
DNA 2: TGGTGGCTACGACGGGATT
B12: GUCGACA (DNA:RNA)
RNA: B1 RNA with C25G, C26U, A27C, A28G, U29A, G30C
DNA 1: CAATCTGAATTCCGGTCTCCC
DNA 2: TGGTGGCTACGACGGGATT
B13: GUUGCUA (DNA:RNA)
RNA: B1 RNA with C25G, C26U, A27U, A28G, U29C, G30U
DNA 1: CAATCTGAATTCCGGTCTCCC
DNA 2: TGGTGGCTACGACGGGATT
B14: CGUGGAA (DNA:RNA)
RNA: B1 RNA with C26G, A27U, A28G, U29G, G30A
DNA 1: CAATCTGAATTCCGGTCTCCC
DNA 2: TGGTGGCTACGACGGGATT
B15: UGCCUGA (DNA:RNA)
RNA: B1 RNA with C25U, C26G, A27C, A28C
DNA 1: CAATCTGAATTCCGGTCTCCC
DNA 2: TGGTGGCTACGACGGGATT
B16: UACAUUU (DNA:RNA)
RNA: B6 RNA with C28A, G29U, A30U
DNA 1: CAATCTGAATTCCGGTCTCCC
DNA 2: TGGTGGCTACGACGGGATT
B17: UACAAUA (DNA:RNA)
RNA: B6 RNA with C28A, G29A, A30U, U31A
DNA 1: CAATCTGAATTCCGGTCTCCC
DNA 2: TGGTGGCTACGACGGGATT
B18: GCAUACA (DNA:RNA)
RNA: B1 RNA with C25G, A28U, U29A, G30C
DNA 1: CAATCTGAATTCCGGTCTCCC
DNA 2: TGGTGGCTACGACGGGATT
B19: UGACGUU (DNA:RNA)
RNA: B6 RNA with A26G, C27A, A30U
DNA 1: CAATCTGAATTCCGGTCTCCC
DNA 2: TGGTGGCTACGACGGGATT
B20: AUCAUGU (DNA:RNA)
RNA: B1 RNA with C25A, C26U, A27C, A31U
DNA 1: CAATCTGAATTCCGGTCTCCC
DNA 2: TGGTGGCTACGACGGGATT
B21: CAAGGGG (DNA:RNA)
RNA: B1 RNA with C26A, A28G, U29G, A31G
DNA 1: CAATCTGAATTCCGGTCTCCC
DNA 2: TGGTGGCTACGACGGGATT
B22: CGGACCA (DNA:RNA)
RNA: B1 RNA with C26G, A27G, U29C, G30C
DNA 1: CAATCTGAATTCCGGTCTCCC
DNA 2: TGGTGGCTACGACGGGATT
B23: GAAGGAA (DNA:RNA)
RNA: B6 RNA with U25G, C27A, C28G, U31A
DNA 1: CAATCTGAATTCCGGTCTCCC
DNA 2: TGGTGGCTACGACGGGATT
B24: UAGAUCU (DNA:RNA)
RNA: B6 RNA with C27G, C28A, G29U, A30C
DNA 1: CAATCTGAATTCCGGTCTCCC
DNA 2: TGGTGGCTACGACGGGATT
B25: UUCACCA (DNA:RNA)
RNA: B1 RNA with C25U, C26U, A27C, U29C, G30C
DNA 1: CAATCTGAATTCCGGTCTCCC
DNA 2: TGGTGGCTACGACGGGATT
B26: ACACCGG (DNA:RNA)
RNA: B1 RNA with C25A, A28C, U29C, A31G
DNA 1: CAATCTGAATTCCGGTCTCCC
DNA 2: TGGTGGCTACGACGGGATT
B27: AGUAUGC (DNA:RNA)
RNA: B1 RNA with C25A, C26G, A27U, A31C
DNA 1: CAATCTGAATTCCGGTCTCCC
DNA 2: TGGTGGCTACGACGGGATT
B28: GAUCAGA (DNA:RNA)
RNA: B1 RNA with C25G, C26A, A27U, A28C, U29A
DNA 1: CAATCTGAATTCCGGTCTCCC
DNA 2: TGGTGGCTACGACGGGATT
B29: UUUGAGG (DNA:RNA)
RNA: B1 RNA with C25U, C26U, A27U, A28G, U29A, A31G
DNA 1: CAATCTGAATTCCGGTCTCCC
DNA 2: TGGTGGCTACGACGGGATT
B30: GAGCACC (DNA:RNA)
RNA: B6 RNA with U25G, C27G, G29A, A30C, U31C
DNA 1: CAATCTGAATTCCGGTCTCCC
DNA 2: TGGTGGCTACGACGGGATT
B31: GGGAGAU (DNA:RNA)
RNA: B6 RNA with U25G, A26G, C27G, C28A
DNA 1: CAATCTGAATTCCGGTCTCCC
DNA 2: TGGTGGCTACGACGGGATT

In this test the target is T1, RBFOX1 RRM RbFoxmut (Fox-RRM*) (Homo sapiens, UniProt Q9NWB1 109-208, R118D;E147R;N151S;E152T).
T1 sequence: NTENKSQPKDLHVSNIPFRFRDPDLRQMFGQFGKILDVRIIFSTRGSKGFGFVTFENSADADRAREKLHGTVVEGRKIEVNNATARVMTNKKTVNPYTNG
The experiment in a line: EMSA; HiTS-Eq, 1 nM pool, 10 min; buffer printed only for the single-RNA assays: 10 mM Tris pH 7.5, 150 mM NaCl, 3.4 mM EDTA, 0.001% NP-40, 30 C. Conditions: tags: His6 N-terminal (pET28a); label: 5' 32P. The method, boiled down:
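Purified RbFox RRM, wild type or mutant, was incubated for 10 min in 50 µL with 1 nM of a 5′-radiolabelled RNA pool carrying 7 randomized nucleotides, whose flanks were annealed to DNA oligonucleotides, over a series of increasing protein concentrations. Unbound RNA was resolved on 8% native PAGE, cut out, reverse-transcribed, barcoded by PCR and sequenced on an Illumina HiSeq 2500. Relative association constants were derived from changes in read counts for each RNA species versus the control reaction and normalised to the cognate motif.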
In general terms: In EMSA bound probe runs differently from free probe, usually more slowly.
B1: the binding signal is 0.112 KA relative to UGCAUGU.

As for B2, the binding signal is 0.0925 KA relative to UGCAUGU.

For B3, the binding signal was 0.1 KA relative to UGCAUGU.

For B4, the binding signal is 0.142 KA relative to UGCAUGU.

For the molecule B5, the binding signal was 0.0632 KA relative to UGCAUGU.

Take B6: the binding signal is 0.0652 KA relative to UGCAUGU.

B7: the binding signal is 0.0769 KA relative to UGCAUGU.

For B8, the binding signal was 0.11 KA relative to UGCAUGU.

As to B9, the binding signal was 0.109 KA relative to UGCAUGU.

On to B10, for which the binding signal is 0.147 KA relative to UGCAUGU.

As for B11, the binding signal is 0.132 KA relative to UGCAUGU.

In the case of B12, the binding signal is 0.0624 KA relative to UGCAUGU.

As for B13, the binding signal was 0.14 KA relative to UGCAUGU.

For B14, the binding signal was 0.153 KA relative to UGCAUGU.

With B15, the binding signal was 0.158 KA relative to UGCAUGU.

Take B16: the binding signal is 0.0855 KA relative to UGCAUGU.

On to B17, for which the binding signal was 0.063 KA relative to UGCAUGU.

As to B18, the binding signal is 0.144 KA relative to UGCAUGU.

For the molecule B19, the binding signal was 0.0909 KA relative to UGCAUGU.

In the case of B20, the binding signal is 0.167 KA relative to UGCAUGU.

On to B21, for which the binding signal is 0.0606 KA relative to UGCAUGU.

Take B22: the binding signal was 0.0692 KA relative to UGCAUGU.

For the molecule B23, the binding signal is 0.0907 KA relative to UGCAUGU.

Turning to B24, the binding signal is 0.0767 KA relative to UGCAUGU.

In the case of B25, the binding signal is 0.0905 KA relative to UGCAUGU.

Consider B26, for which the binding signal was 0.0774 KA relative to UGCAUGU.

On to B27, for which the binding signal was 0.274 KA relative to UGCAUGU.

Regarding B28, the binding signal is 0.0661 KA relative to UGCAUGU.

Take B29: the binding signal is 0.0855 KA relative to UGCAUGU.

In the case of B30, the binding signal was 0.0864 KA relative to UGCAUGU.

On to B31, for which the binding signal was 0.0959 KA relative to UGCAUGU.
